Source: the supplement of paper PMC11417369
± gives the standard deviation of the averaged measurements. Some of the results follow.

Tested on: PfAP2-G AP2 domain (GST-tagged)
Assay: gcPBM binding intensity (ln(normalized median fluorescence intensity)); higher = stronger DNA binding
Outline: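 After 1 h on an Agilent 4 × 180k array of primer-extended double-stranded 36-bp intergenic genomic probes and negative controls, bound GST-tagged P. falciparum DNA-binding domains were detected with Alexa488 anti-GST antibody and scanned at 488 nm. The domains had been expressed in E. coli, and binding took place in 1× PBS with 1% milk, 0.2 mg/ml BSA, 0.5% salmon testes DNA and 0.03% Triton X-100. Binding intensity is the highest Masliner-normalised natural-log median intensity across replicate spots of either probe orientation.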

| Sequence | gcPBM binding intensity (ln) |
| --- | --- |
| TATATATATATATATTGTACTTTATTTTATATATTC [XGTACX_site5697] | 11.2 ± 0.71 |
| ATTTATAATGAGTATACACACATATATAGATTTGCT [CACACA_site4517] | 9.955 ± 0.035 |
| ATTATTATTGTCAAATGTACAAGCTAATAATTTTTA [XGTACX_site7167] | 10.6 ± 0.33 |
| ATGTTATATTTTTTTATACACACTGGAATATATAAA [CACACA_site215] | 10.1 ± 0.16 |
| TAAAAAATAAAATACACACACATATTTATATTTATA [CACACA_site6737] | 9.78 ± 0.042 |
| AAAAAAAAAAAAAACATACACACAAGAACAAAATAT [CACACA_site3003] | 10.07 ± 0.071 |
| CAACAACATTTTTCATGTACATATATTTTATAATAT [XGTACX_site519] | 11.3 ± 0.8 |
| TATTTTATCATTTGCACACGCACACCCACATAAAAA [CACACA_site354] | 10.7 ± 0.6 |
| TATATTAAAACAAGCACACAATCGCATAATATCCTT [CACACA_site3210] | 9.895 ± 0.049 |
| AGTATTATATTTTCTTGTACACATGTAAAATACCTC [XGTACX_site1359] | 11.4 ± 0.88 |
| TTTTTTCTTTTCAAGGTGCTTTATAAGAAAAAGGGA [GTGCAC_site9858] | 10.1 ± 0.38 |
| AAAAAAAAAAAAAACACACACACACCCAAATACATA [CACACA_site708] | 10.3 ± 0.15 |
| CAATTACGCAGGAATGCACACAATAATAAAAAAAAT [CACACA_site3513] | 10.07 ± 0.085 |
| AAAAAAAAAAAAAAAACACACATATATGTATATATA [CACACA_site3276] | 10 ± 0.27 |
| ATATATATATATATATGTACATATTTTTTATTTTAT [XGTACX_site5761] | 11.2 ± 0.73 |
| TTTCAAAAAGGAAGAAAAAAAAAAAAAAAAAATATA [XGTACX_negctrl_site514] | 9.46 ± 0.15 |
| TCCCCCTTTTTTTGATTTTTATCTTAATTCTAAAAG [GTGCAC_negctrl_site541] | 10.4 ± 0.35 |
| TATTATTCAAATAAAAGAAAAATATATATATTATAT [GTGCAC_negctrl_site273] | 9.51 ± 0.34 |
| ATATGTTACTTTACATAAAGAAGAAGAAGAAGAAAA [CACACA_negctrl_site985] | 9.805 ± 0.064 |
| AAGCTTCATTAATATACACACATATATGTGTATATT [CACACA_site7693] | 9.87 ± 0.12 |
| AAGGTATGATTAATCACACACATAAATATAAATACA [CACACA_site5464] | 9.845 ± 0.092 |
| AATAAAGAAGAAGAAAGTACACATTTCACAAAGGGG [XGTACX_site1308] | 11.5 ± 0.9 |
| GATATATGTATAATAACGCACACTACAAAAATAAAA [CACACA_site2100] | 10.3 ± 0.33 |

| Sequence | gcPBM binding intensity (ln) |
| --- | --- |
| ATAAAATATAGGTATGCACACACATATACTTCTGTG [CACACA_site8398] | 10.315 ± 0.007 |
| TATATAATACGAATTTGTACATATTAAATAAATTAT [XGTACX_site93] | 10.8 ± 0.61 |
| GTTAGTTTTAGTTCATGTACATAATAGAAAATATAT [XGTACX_site7125] | 11.4 ± 0.91 |
| CTCATATATAACACATGTACACAGATTTTGCAAATG [XGTACX_site6879] | 11.4 ± 0.88 |
| TTTTTTTTTTTTTTTTTACACACTGCATACAAGAAA [CACACA_site3026] | 10 ± 0.5 |
| GTCTGCATATGGATACGTACACATATATATTAATGT [XGTACX_site2260] | 11.7 ± 0.91 |
| GGGAAAAAATGAGGTCGTACATTTTTCATCACAAAT [XGTACX_site8920] | 11.4 ± 0.86 |
| AAACTATACCAAAACACACATACAAAATATAAAAAA [CACACA_site2707] | 10.1 ± 0.16 |
| ATTTTCAAATTATCAGATGAATCTTTTTAAGATCTT [XGTACX_negctrl_site598] | 9.45 ± 0.26 |
| AATGAATGTACATACGCATGTACTTGACTAAATTAT [TGCATGCA_site436] | 11.4 ± 0.86 |
| CAAGAAACAGTGATACGTACACATATATATATATAT [XGTACX_site3229] | 11.6 ± 0.79 |
| TTCAAATAAATAGTAGTGCATATTTATTAATGTAAA | 10.1 ± 0.13 |
| ATTAAAGAGAGACATCAACACACATACGTATGTATA [CACACA_site8393] | 9.89 ± 0.11 |
| TGGTAATACCCATACACACACACATACCCATATATA [CACACA_site5509] | 10.3 ± 0.21 |
| ATAAATAAAACAACAGTGCAATAAAATTAGTTGAGG | 9.86 ± 0.26 |
| TTTTTTATGAGGTGGTGTACTTTTTTTTTTTTCTTT [XGTACX_site8550] | 11.7 ± 0.97 |
| TATTTTTTAAAAAAACGTACAAACATAATAAAAATA [XGTACX_site1857] | 11.5 ± 1.1 |
| TATATATATATATATGTGCACATTTTATTAAAATGT | 10.4 ± 0.34 |
| ATAGACATTTTACTTTGTACATATAAACATATATAT [XGTACX_site2733] | 10.8 ± 0.3 |
| ATATGAAACATGAAGGTGCATAATGTGTATATTTAT | 10.2 ± 0.2 |
| ACATAAATATATTTTTCACACATCATTAGTTATGAA [CACACA_site4724] | 9.84 ± 0.071 |
| TAATATATTATAAACACATGCACATTAATAATAACT [TGCATGCA_site708] | 9.91 ± 0.071 |
